Hit rate of the full screen: of about 270,000 compounds, about 5,800 (2.1%) were called active. Inconclusive results, whose numbers are uncertain, are shown with a selection of clear calls. Calls follow the shape of the dose curve; as a rule, active = well fitted inhibition curve with a large enough effect; inconclusive = small, poorly fitted or top-dose-only effect; inactive = flat fitted curve, though single readings scatter. Potencies of inconclusive entries are doubtful fits and often do not repeat.
Each compound was assayed against Microtubule-associated protein tau (Homo sapiens) (UniProt P10636) (assay: qHTS for Inhibitors of Tau Fibril Formation, Thioflavin T Binding). Settings: recombinant tau K18 P301L (four-repeat tau fragment), heparin-induced fibrillization, ThT fluorescence; series mostly up to 57.4 µM; activity, negative = inhibition: at the top concentration.
UniProt P10636, sequence (P10636 whole entry, looked up, the tested form may be a part): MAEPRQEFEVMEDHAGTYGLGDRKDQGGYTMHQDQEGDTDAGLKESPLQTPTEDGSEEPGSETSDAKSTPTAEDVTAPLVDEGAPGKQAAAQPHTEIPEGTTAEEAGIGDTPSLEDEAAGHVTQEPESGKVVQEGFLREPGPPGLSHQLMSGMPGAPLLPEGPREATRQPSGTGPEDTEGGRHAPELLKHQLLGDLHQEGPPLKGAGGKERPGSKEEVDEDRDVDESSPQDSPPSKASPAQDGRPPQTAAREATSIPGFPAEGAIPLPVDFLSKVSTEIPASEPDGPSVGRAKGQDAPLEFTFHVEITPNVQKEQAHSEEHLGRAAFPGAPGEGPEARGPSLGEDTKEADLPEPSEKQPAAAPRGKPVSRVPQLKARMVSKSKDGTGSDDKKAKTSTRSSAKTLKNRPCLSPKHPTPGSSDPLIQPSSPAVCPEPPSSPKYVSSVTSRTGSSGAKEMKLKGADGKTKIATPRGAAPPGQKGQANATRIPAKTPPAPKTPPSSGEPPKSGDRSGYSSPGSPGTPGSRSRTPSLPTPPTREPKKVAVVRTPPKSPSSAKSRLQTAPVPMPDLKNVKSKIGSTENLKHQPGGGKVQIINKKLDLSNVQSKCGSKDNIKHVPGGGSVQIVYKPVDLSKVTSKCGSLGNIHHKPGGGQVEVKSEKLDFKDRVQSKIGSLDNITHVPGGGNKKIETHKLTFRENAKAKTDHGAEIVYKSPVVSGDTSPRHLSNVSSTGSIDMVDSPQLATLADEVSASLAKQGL
Method in brief: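 In this qHTS, human K18 P301L tau is incubated with compound and heparin for 6 hr at 37 C, and Thioflavin T fluorescence then reports fibril load.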
In the case of `Cc1c(C(=O)Nc2cc(F)ccc2F)sc2nc(-c3ccc(F)cc3)cn12`, the Potency is reported as inconclusive: 0.0891 µM [inhibitor, full curve, poor fit]. `C/C(=N\Nc1c([N+](=O)[O-])c(C)nn1C)c1ccc(F)cc1F` was tested, and the Potency was inconclusive: 8.91 µM [inhibitor, full curve, poor fit]. With `CC(=O)c1c(C)[nH]c(C(=O)N(CCc2ccccc2)Cc2ccccc2)c1C` the Potency was inconclusive: 35.5 µM [inhibitor, single point]. With `Nc1ccc2c(c1)nc(Cc1ccccc1)n2CCO` the “activity, negative = inhibition” value was inactive: -11.5%. In the case of `COC(=O)CCC(=O)NNC(=O)c1ccc([N+](=O)[O-])cc1`, the Potency is reported as inconclusive: 44.7 µM [inhibitor, single point]. `CCn1cc(C(=O)NC2CCCCC2)c(=O)c2cc(S(=O)(=O)N(C)C)ccc21` was tested, and the “activity, negative = inhibition” value was inactive: 14%. With `Cc1ccc(-n2ncc(C(=O)NCc3ccco3)c2C2CCN(C(=O)OC(C)(C)C)CC2)cc1C` the Potency was inconclusive: 1.41 µM [inhibitor, partial curve]. For `Cc1ccc(Nc2ccc(C(N)=O)cc2[N+](=O)[O-])cc1C`, the “activity, negative = inhibition” value was inactive: -9.12%. With `O=C(CSc1nc2ccccc2nc1Cc1ccc(Cl)cc1)N1CCN(c2ccccc2)CC1` the Potency was inconclusive: 17.8 µM [inhibitor, single point]. In the case of `O=C(CSc1nc(-c2cccc(F)c2)[nH]c1-c1ccccc1)Nc1ccc2c(c1)OCO2`, the Potency is reported as inconclusive: 28.2 µM [inhibitor, partial curve]. `COc1ccc(/C=C/C(=O)/C=C/c2ccc(OC)cc2OC)c(OC)c1` was tested, and the Potency was inconclusive: 3.55 µM [inhibitor, partial curve]. With `c1ccc(CC2CCN(c3ncnc4sccc34)CC2)cc1` the Potency was inconclusive: 28.2 µM [inhibitor, partial curve]. `O=S(=O)(c1ccc(Cl)c(S(=O)(=O)N2CCCC2)c1)N1CCCC1` was tested, and the “activity, negative = inhibition” value was inactive: -1.4%. With `COc1ccccc1NC(=O)C1=C(C)Nc2nc(SC)nn2C1c1ccccc1Cl` (configuration not stated) the Potency was inconclusive: 44.7 µM [inhibitor, single point]. With `Cc1ccc2cc3c(N)c4c(C)ccc(C)c4nc3nc2c1` the Potency was inconclusive: 17.8 µM [inhibitor, partial curve]. With `CCc1ccc(CNC(=O)C2CCCN(c3nnc(C)c4c(C)n(-c5ccccc5)nc34)C2)cc1` (configuration not stated) the Potency was inconclusive: 17.8 µM [inhibitor, partial curve]. With `Cc1ccccc1CSc1ncc(Cl)c(C(=O)Nc2nc3ccc(F)cc3s2)n1` the Potency was inconclusive: 8.91 µM [inhibitor, single point]. With `C[C@@H]1C(c2ccccc2)=NN(c2ccccc2)[C@H]1C(=O)N1CCOC1=O` the Potency was inconclusive: 44.7 µM [inhibitor, partial curve, poor fit]. In the case of `CCOC(=O)c1cc(S(=O)(=O)NCc2ccc(Cl)cc2)[nH]n1`, the “activity, negative = inhibition” value is reported as inactive: -0.125%. `Cc1c(C(=O)Nc2ccccc2[N+](=O)[O-])csc1-c1ccccc1` was tested, and the Potency was inconclusive: 14.1 µM [inhibitor, partial curve]. With `Cc1cccc(OCc2nc(C#N)c(NCCN(C)C)o2)c1` the Potency was inconclusive: 14.1 µM [inhibitor, partial curve]. With `CC(C)(C)NCCOCCOc1ccc(Cl)cc1C(C)(C)C` the “activity, negative = inhibition” value was inactive: -1.49%. In the case of `CCOc1ccc2nc(NC(=O)/C=C/c3ccc4c(c3)OCO4)sc2c1`, the Potency is reported as inconclusive: 0.355 µM [inhibitor, full curve, poor fit]. With `Cc1cnc(CNc2nc(-c3ccc(N(C)C)cc3)nc3ccccc23)cn1` the Potency was inconclusive: 7.08 µM [inhibitor, partial curve]. With `O=c1c2cc3c(cc2nc2sc(Nc4cccc([N+](=O)[O-])c4)nn12)OCO3` the Potency was inconclusive: 12.6 µM [inhibitor, partial curve]. In the case of `O=C(NCCc1ccccc1)N1c2ccccc2Sc2ccccc21`, the Potency is reported as inconclusive: 35.5 µM [inhibitor, partial curve, poor fit]. In the case of `Oc1[nH]c2ccccc2c1C1=NCCCC1`, the Potency is reported as inconclusive: 17.8 µM [inhibitor, partial curve]. `Cc1c(N=C2C=C(Br)C(=O)C(Br)=C2)c(=O)n(-c2ccccc2)n1C` was tested, and the Potency was active: 15.8 µM. In the case of `COc1ccccc1NC(=O)c1cc(Br)ccc1Cl`, the Potency is reported as inconclusive: 14.1 µM [inhibitor, partial curve]. `CCCCN(C(=O)C1CCC(CNS(=O)(=O)c2cccc3nsnc23)CC1)c1ccccc1` (configuration not stated) was tested, and the “activity, negative = inhibition” value was inactive: -12.8%. For `Cc1ccc(C(=O)N/N=C/c2nc3ccccc3n2C)cc1`, the Potency was inconclusive: 1.78 µM [inhibitor, full curve]. `Cc1cc2oc(=O)c(CC(=O)NCCc3ccccc3F)c(C)c2c2occ(C(C)(C)C)c12` was tested, and the Potency was inconclusive: 35.5 µM [inhibitor, single point]. `COc1cccc2[nH]c3c(N4CCCC(C)C4)ncnc3c12` (configuration not stated) was tested, and the Potency was inconclusive: 12.6 µM [inhibitor, partial curve, poor fit]. In the case of `CCOC(=O)c1c(NC(=O)c2ccc(OCC)c(Br)c2)sc2c1CCCC2`, the “activity, negative = inhibition” value is reported as inactive: -5.43%. With `O=C(Nc1cccc(-c2csc(Nc3cccc(C(F)(F)F)c3)n2)c1)c1cc([N+](=O)[O-])cc(C(F)(F)F)c1` the Potency was inconclusive: 14.1 µM [inhibitor, partial curve]. For `CN(C)c1nc(N)nc(CSc2n[nH]c(-c3ccccc3)n2)n1`, the “activity, negative = inhibition” value was inactive: -6.9%. `Cc1nn(C(C)C(=O)c2cccc(Cl)c2)c(C)c1[N+](=O)[O-]` (configuration not stated) was tested, and the “activity, negative = inhibition” value was inactive: -2.09%. `Cc1cccc(NC(=O)c2ccc(-n3c(C)nnc3C)cc2)c1` was tested, and the “activity, negative = inhibition” value was inactive: -6.66%. `COc1ccccc1CN1CCC(CNC(=O)c2cnn(-c3ccccc3Cl)c2C2CCN(C(=O)OC(C)(C)C)CC2)CC1` was tested, and the Potency was inconclusive: 39.8 µM [inhibitor, single point]. In the case of `COc1ccc(N/C=C(\C#N)c2ccc(OCCCF)cc2)cc1`, the Potency is reported as inconclusive: 3.16 µM [inhibitor, full curve]. With `Cc1ccc(-n2c(-c3ccc(Br)cc3)c[n+]3c2CCc2ccc4cccnc4c2-3)cc1` the Potency was inconclusive: 0.708 µM [inhibitor, full curve, poor fit]. In the case of `CCC(=O)c1ccc(OCC(=O)c2ccc3c(c2)NC(=O)CO3)cc1`, the Potency is reported as inconclusive: 0.891 µM [inhibitor, partial curve, poor fit].

— PubChem BioAssay AID1460 (National Center for Advancing Translational Sciences (NCATS), 2008)
% is scaled to controls: 0 for no effect and ±100 for the full control effect; potency is read from the fitted curve at half-maximal effect; tags tell the direction and shape of the fitted curve.
Also: nearly all actives have a fitted effect of over 55% in size.
